What all share (assay): Primary Screen for Target Class Profiling of Small Molecule Inhibitors of Methyltransferases
Assay [1] addresses Glycine N-methyltransferase (Homo sapiens) (UniProt Q14749). The settings on record: purified enzyme, MTase-Glo SAH luminescence; measured here: GNMT inhibition; at 40 µM; stronger effect = lower value. The essentials:
(§1)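 Each enzyme was reacted with SAM and its substrate, with compounds tested once at 40 uM; SAH formed was read by MTase-Glo luminescence.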

The target in assay [2] is Guanidinoacetate N-methyltransferase (Homo sapiens) (UniProt Q14353). The settings on record: purified enzyme, MTase-Glo SAH luminescence; measured here: GAMT inhibition; at 40 µM; stronger effect = lower value. The essentials:
as §1

The target in assay [3] is Histamine N-methyltransferase (Homo sapiens) (UniProt P50135). As to conditions: purified enzyme, MTase-Glo SAH luminescence; measured here: HNMT inhibition; at 40 µM; stronger effect = lower value. The essentials: as §1
For assay [4], the target named is Nicotinamide N-methyltransferase (Homo sapiens) (UniProt P40261). As to conditions: purified enzyme, MTase-Glo SAH luminescence; measured here: NNMT inhibition; at 40 µM; stronger effect = lower value. The essentials: as §1
Assay [5] addresses Phenylethanolamine N-methyltransferase (Homo sapiens) (UniProt P11086). The settings on record: purified enzyme, MTase-Glo SAH luminescence; measured here: PNMT inhibition; at 40 µM; stronger effect = lower value. The essentials:
as §1

Structures are written as SMILES. The list shows a part of the results. Shown are side measurements of this screen, not its main read-out; they come without a call.

The source of these data is PubChem BioAssay AID1745853 (National Center for Advancing Translational Sciences (NCATS), 2022).
On the % scale 0 is the no-effect control and ±100 the full control effect.

Regarding `CC(=O)O[C@@H]1C[C@H](O)[C@@]23CO[C@H](O)[C@]1(C)C2C[C@@H](O)[C@]1(C)C3C(=O)[C@H](OC(C)=O)[C@@]2(C)[C@H](c3ccoc3)C[C@H]3O[C@]321` (stereo partly drawn), the activity change, negative = inhibition in assay [1] is 4.7%; in assay [2] it was 6.49%; in assay [3], 9.97%; in assay [4], -6.95%; in assay [5] it was 3.99%.

As to `CCn1c(=O)n(CC)c2cc(S(=O)(=O)Nc3ccc(Cl)cc3)ccc21`, the activity change, negative = inhibition in assay [1] is -3.03%; in assay [2], 4.98%; in assay [3], -3.51%; in assay [4] it was -13.4%; in assay [5], -0.876%.

For the molecule `CCOC(=O)c1cc2n(n1)CC(C)(C(=O)NC1CCCC1)N(c1ccccc1CC)C2=O` (stereo not drawn), the activity change, negative = inhibition is 0.481% in assay [1]; 0% in assay [2]; -0.305% in assay [3]; -1.97% in assay [4]; 1.37% in assay [5].

For the molecule `CC1(C(=O)NCc2ccccc2)Cn2c(cc3ccccc32)C(=O)N1CCc1cccs1` (stereo not drawn), the activity change, negative = inhibition was determined as 1.9% in assay [1]; 3.81% in assay [2]; 5.03% in assay [3]; 1.46% in assay [4]; 0.67% in assay [5].

In the case of `NC(=O)CO[C@@H]1CO[C@H]2[C@@H]1OC[C@@H]2NC(=O)NCc1ccccc1`, the activity change, negative = inhibition in assay [1] is -4.24%; in assay [2] it was -7.59%; in assay [3], -2.12%; in assay [4] it was -11.5%; in assay [5], -7.41%.

Regarding `COc1ccc(NC(=O)[C@@H]2C[C@H](c3ccc(F)cc3)N(Cc3csc(C)n3)C2)cn1`, the activity change, negative = inhibition in assay [1] is -14.8%; in assay [2], -11%; in assay [3] it was -6.41%; in assay [4], -25.4%; in assay [5] it was -16.5%.

With `CCCS(=O)(=O)c1nc(NC2CC2)cc(-c2ccc3c(ccn3C3CC(C)(C)NC(C)(C)C3)c2)n1`, the activity change, negative = inhibition is 5.68% in assay [2], -29.2% in assay [4] and -12.6% in assay [5].

Consider `Cc1ccc(CN2CC(=O)N(Cc3ccc(Cl)cc3)c3ccccc3S2(=O)=O)cc1`, for which the activity change, negative = inhibition in assay [1] was -1.02%; in assay [2], 3.57%; in assay [3], -8.12%; in assay [4], -6.63%; in assay [5], -6.89%.

As to `COc1ccccc1CNC(=O)C1(C)Cn2nc(-c3ccccc3)cc2C(=O)N1Cc1ccccc1C` (stereo not drawn), the activity change, negative = inhibition is 5.28% in assay [1]; 0.886% in assay [2]; 4.38% in assay [3]; 3.24% in assay [4]; 0.929% in assay [5].

Take `CCC(C(=O)NCCc1ccc(Cl)cc1)n1ccc2cc(S(=O)(=O)N3CCCCC3)ccc21` (stereo not drawn): the activity change, negative = inhibition in assay [1] was found to be 2.65%; in assay [2], 0%; in assay [3], 3.76%; in assay [4] it was 0.091%; in assay [5], 0.075%.

For the molecule `CCc1ccc(N2CC(c3noc(C4(c5ccccc5)CC4)n3)CC2=O)cc1` (stereo not drawn), the activity change, negative = inhibition in assay [1] was -3.17%; in assay [2], 0.336%; in assay [3] it was -2.08%; in assay [4], -3.63%; in assay [5], 7.97%.

Turning to `C=C1C(O[C@@H]2O[C@H](CO)[C@@H](O)[C@H](O)[C@@H]2O)CC2C(C)(C)C(O)CCC2(C)C1CC/C(C)=C\CO` (stereo partly drawn), the activity change, negative = inhibition in assay [1] was -0.233%; in assay [2], 1.33%; in assay [3], 1.17%; in assay [4] it was -12.4%; in assay [5], 4.93%.

For the molecule `CCOc1ccc(NC(=O)CN(C)S(=O)(=O)c2ccc3[nH]c4c(c3c2)CCCC4)cc1`, the activity change, negative = inhibition was -6.8% in assay [1]; -1.98% in assay [2]; -4.69% in assay [3]; -11.2% in assay [4]; -0.772% in assay [5].

Take `CCc1noc(-c2ccn3c(CNC(=O)c4ccc(C)c(F)c4)nnc3c2)n1`: the activity change, negative = inhibition in assay [1] is -4.74%; in assay [2], -3.58%; in assay [3], -1.39%; in assay [4], -9.99%; in assay [5] it was -6.18%.

`CCOCCCN1C(=O)c2ccc(-c3ccco3)n2CC1(C)C(=O)NC1CCCCCC1` (stereo not drawn): the activity change, negative = inhibition in assay [1] is -0.154%; in assay [2], 0%; in assay [3] it was 5.18%; in assay [4], 4.72%; in assay [5] it was 1.05%.

Regarding `O=C(C[C@@H]1CCNC[C@@H]1Cc1cc(CN2CCOCC2)on1)N1CCN(c2ccc(F)cc2)CC1`, the activity change, negative = inhibition in assay [1] was -7.18%; in assay [2], -9.46%; in assay [3], -4.69%; in assay [4], -17.4%; in assay [5], -14.3%.

As for `Cc1noc(C2CCCCN2C(=O)c2ccoc2)n1` (stereo not drawn), the activity change, negative = inhibition in assay [1] was 2.71%; in assay [2] it was -7.58%; in assay [3], -1.57%; in assay [4], -10.9%; in assay [5] it was -7.27%.

`CC1CC(C)CN(S(=O)(=O)c2ccc3c(c2)oc(=O)n3CC(=O)NC(C)c2ccccc2)C1` (stereo not drawn): the activity change, negative = inhibition in assay [1] is -7.03%; in assay [2], 0%; in assay [3], 5.87%; in assay [4], 2.81%; in assay [5], 0.401%.

On to `CN(c1ccccc1)c1cc(=O)c2ccnc(-c3cncnc3)c2o1`, for which the activity change, negative = inhibition is -7.99% in assay [1]; -4.33% in assay [2]; -10.7% in assay [3]; -12.5% in assay [4]; -2.99% in assay [5].

For `Cc1cc(CC(=O)N2C[C@@H](COCC3CC3)[C@H](c3ccncc3)C2)on1`, the activity change, negative = inhibition in assay [1] is 0.329%; in assay [2], -8.34%; in assay [3] it was 1.02%; in assay [4] it was -0.2%; in assay [5], 1.13%.

With `O=C(c1ccnc(-c2ccncc2)c1)N1CCCC1`, the activity change, negative = inhibition was -4.2% in assay [1]; -1.77% in assay [2]; -2.02% in assay [3]; -7.93% in assay [4]; -14.1% in assay [5].

As for `CC(=O)N1CCN(C(=O)c2cn3cc(-c4ccc(F)cc4)sc3n2)CC1`, the activity change, negative = inhibition in assay [1] was -6.47%; in assay [2], -10.5%; in assay [3], -4.01%; in assay [4], -14.4%; in assay [5], -12.7%.

With `CC(=O)[C@H]1CC[C@H]2[C@@H]3CCC4=CC(=O)CC[C@]4(C)[C@H]3CC[C@]12C`, the activity change, negative = inhibition in assay [1] is -1.6%; in assay [2], 12.7%; in assay [3], 6.03%; in assay [4], -15.3%; in assay [5], -0.229%.

`Cn1cc(CNCC2CCN(c3ncc(C(=O)NO)cn3)CC2)c2ccccc21`: the activity change, negative = inhibition in assay [1] is 1.78%; in assay [3], -13.4%; in assay [4], 0.79%; in assay [5], 9.53%.

In the case of `C[N+]1(C)[C@@H]2CC[C@H]1CC(OC(=O)C(O)c1ccccc1)C2` (stereo partly drawn), the activity change, negative = inhibition in assay [1] was 6.18%; in assay [2], 6.29%; in assay [3] it was 5.61%; in assay [4], -5.51%; in assay [5] it was 5.34%.

As to `CNC(=O)CCn1ccc2cc(S(=O)(=O)N3CCCCC3)ccc21`, the activity change, negative = inhibition is 5.16% in assay [1]; 1.22% in assay [2]; 3.25% in assay [3]; 6.74% in assay [4]; 2.42% in assay [5].

With `COCCNC(=O)c1ccc(-c2ccc(N3CCCCC3)nc2)cc1`, the activity change, negative = inhibition was -7.49% in assay [1]; -6.59% in assay [2]; -3.5% in assay [3]; -8.16% in assay [4]; -4.72% in assay [5].

On to `CC(=O)N1CCN(c2ccc(OC[C@H]3CO[C@](Cn4ccnc4)(c4ccc(Cl)cc4Cl)O3)cc2)CC1`, for which the activity change, negative = inhibition in assay [1] was -3.6%; in assay [2], 11.8%; in assay [3], -0.364%; in assay [4], -12%; in assay [5], 3.74%.

Take `COCCCNC(=O)C1(C)Cn2nc(-c3ccccc3)cc2C(=O)N1Cc1ccc(Cl)cc1` (stereo not drawn): the activity change, negative = inhibition in assay [1] was -5.39%; in assay [2], 3.21%; in assay [3], -0.796%; in assay [4], -3.57%; in assay [5], -2.81%.

For `CCc1ccc(CNC(=O)c2ccc3c(=O)nc4c(-c5ccccc5)n[nH]n4c3c2)cc1`, the activity change, negative = inhibition in assay [1] was -9.29%; in assay [2], 0.671%; in assay [3], -2.84%; in assay [4] it was -10.9%; in assay [5], -5.23%.

On to `CCC(C)NC(=O)c1ccc2c(=O)n(C(C)C)c3nn(CC(=O)c4cc(C)ccc4C)c(=O)n3c2c1` (stereo not drawn), for which the activity change, negative = inhibition is 2.03% in assay [1]; 0.561% in assay [2]; 0.994% in assay [3]; -7.13% in assay [4]; -3.29% in assay [5].

In the case of `CC1CC2C3CCC4=CC(=O)C=C[C@]4(C)[C@@]3(F)[C@@H](O)C[C@]2(C)[C@@]1(O)C(=O)CO` (stereo partly drawn), the activity change, negative = inhibition in assay [1] is -5.54%; in assay [2] it was 4.21%; in assay [3], -1.62%; in assay [4], -6.8%; in assay [5], 2.36%.

In the case of `Oc1cccc(Nc2ccnc3[nH]c4ccccc4c23)c1`, the activity change, negative = inhibition in assay [2] is -0.867%; in assay [4], -76.3%; in assay [5] it was -11.8%.

As for `CC1(C(=O)NC2CCCCCC2)Cn2c(ccc2-c2ccco2)C(=O)N1CCCN1CCOCC1` (stereo not drawn), the activity change, negative = inhibition in assay [1] turned out to be 6.51%; in assay [2] it was 3.1%; in assay [3] it was 7.68%; in assay [4], 9.18%; in assay [5], 2.31%.

`COc1ccc(Cl)cc1[C@@]1(F)C(=O)Nc2cc(C(F)(F)F)ccc21`: the activity change, negative = inhibition in assay [1] is 6.38%; in assay [2], 6.4%; in assay [3] it was 5.24%; in assay [4], -29.5%; in assay [5], -2.99%.

In the case of `Cc1noc(-c2cccc(OC3CN(C(=O)c4ccco4)C3)c2)n1`, the activity change, negative = inhibition in assay [1] was -3.76%; in assay [2], 1.92%; in assay [3] it was -0.363%; in assay [4], -0.983%; in assay [5], 17.1%.

On to `CC(C)(C)n1nc(Cc2cccc3ccccc23)c2c(N)ncnc21`, for which the activity change, negative = inhibition in assay [2] is 2.06%; in assay [4], -42%; in assay [5] it was -20.2%.

For the molecule `CC1CCCCC1NC(=O)C1(C)Cn2c(nc3ccccc32)C(=O)N1Cc1ccccc1Cl` (stereo not drawn), the activity change, negative = inhibition in assay [1] is -3.23%; in assay [2], 3.99%; in assay [3], -5.68%; in assay [4] it was 2%; in assay [5] it was -3.48%.
